Molecules are shown by their SMILES.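 Where inhibition never reached the appropriate level, the endpoint shown equals the highest concentration tested. Otherwise, values were interpolated linearly from a five-concentration, 48-hour dose response in 96-well plates. GI50: concentration for 50% inhibition of growth.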 Activity calls are given as the source filed them. No stated cut-off is given here; in the data, active = GI50 up to about 1.1 µM and inactive = higher.

This assay concerns NCI-H322M. Put plainly: growth of human tumour cells (NCI), 48 h.
For `C=CC(=O)NCNC(=O)C=C`, the GI50 was inactive: > 100 µM.
As for `Cc1c(NC(=O)Nc2c(Cl)cccc2Cl)c(=O)n(-c2ccccc2)n1C`, the GI50 was inactive: > 100 µM.
Then `N#Cc1c(Nc2ccccc2)[n+]([O-])c2ccc(Cl)cc2[n+]1[O-]`, with inactive: 33.3 µM; and `CS(=O)(=O)N(CC(=O)O)Cc1ccccc1`, with inactive: > 100 µM; and `COc1ccc(OC)c2c(/C=C/c3ccc(N(C)C)cc3)ccnc12`, with inactive: > 10 µM.
Then `O=S(=O)(O)C(F)(F)C(F)(F)C(F)(F)C(F)(F)F`, with inactive: > 100 µM.
Consider `Cc1ccc(N2CCN(CCC(=O)O)CC2)cc1`, for which the GI50 was inactive: > 100 µM.
In the case of `c1ccc2c(c1)nc1n2sc2nc3ccccc3n21` it was inactive: > 100 µM; in that of `COc1ccccc1/C=C\C(=O)C1COCN1` (configuration not stated), inactive: 18.3 µM; in that of `COc1ccc(N2CCN(c3ccc4c(c3)NCC(=O)N4)CC2)cc1`, inactive: > 100 µM.
`COC(=O)[C@H](C)NC(=O)[C@H](NS(=O)(=O)c1nc2ccccc2s1)c1ccccc1`: the GI50 is inactive: 21.6 µM.
In the case of `NC(Cc1ccc2nc3c4ccccc4c(=O)cc-3oc2c1)C(=O)O` (configuration not stated) it was inactive: > 100 µM; in that of `CCOC(=O)C(=O)Nc1ccc(C)cc1C`, inactive: > 100 µM; in that of `COP(=O)(OC)OCN(C)CC/C=C(\C)CC/C=C(\C)CCC=C(C)C`, inactive: 14.4 µM.
In the case of `N/C(=N\N=C\c1nc2ccccc2o1)c1cnccn1` it was inactive: > 100 µM.
Then `CCOC(=O)/C(=C/c1cccc(C#N)c1)N(CC)CC`, with inactive: > 100 µM; and `[N-]=[N+]=NC(c1cn(C2CC(O)C(CO)O2)c(=O)[nH]c1=O)C(I)I` (configuration not stated), with inactive: > 100 µM; and `COC(=O)c1sc2c(=O)c(C(=O)OC)c(C(=O)OC)sc2c(=O)c1C(=O)OC`, with inactive: > 100 µM.
Turning to `Nc1ccc2nc3ccc(N)cc3[n+](-c3ccccc3)c2c1`, the GI50 was inactive: 85.7 µM.
Then `CC1=C(O)C(=O)C2C(=O)C1C(C)C2c1ccc(Cl)cc1` (configuration not stated), with inactive: > 100 µM; and `N=C(CC(=O)NOC(=O)c1ccccc1)NOC(=O)c1ccccc1`, with inactive: 93.8 µM.
Consider `COc1ccc2nc(NC(=O)C(=O)C(C#N)c3ccc(Cl)c(Cl)c3)sc2c1` (configuration not stated), for which the GI50 was inactive: 42.9 µM.
With `Cc1ccc2c(c1)CC1(Cc3cc(C)ccc3C1=O)C2=O`, the GI50 is inactive: > 100 µM.
In the case of `COc1cc2ccc(C(=O)O)cc2cc1OC` it was inactive: > 100 µM.
In the case of `CN(C)CCOc1ccc2[nH]c(C(=O)N3CC(CCl)c4c3cc(NC(=O)OCc3ccc([N+](=O)[O-])cc3)c3ccccc43)cc2c1` (configuration not stated), the GI50 was inactive: 1.3 µM.
In the case of `CC(=N/N=C/c1ccccn1)/C(C)=N/N=C(C)/C(C)=N/N=C(C)/C(C)=N/N=C(C)/C(C)=N\N=C\c1ccccn1`, the GI50 was inactive: > 100 µM.
Then `C#CC1(O)c2ccccc2C(=O)c2ccccc21`, with inactive: > 100 µM.
Take `CC(C)(C)OC(=O)N(CCCCNC(=O)OCc1ccccc1)CCCNC(=O)OCc1ccccc1`: the GI50 is inactive: > 100 µM.
In the case of `COC1(OC)CC2C=C(S(=O)(=O)c3ccccc3)C1N(Cc1ccccc1)C2=O` (configuration not stated) it was inactive: 49.5 µM; in that of `C=C(NC(=O)C(=C)NC(=O)c1ccc2c(n1)-c1coc(n1)C(=C)NC(=O)C(=C)NC(=O)c1nc(oc1C)C(=C)NC(=O)C(C(C)(C)O)NC(=O)C(=C)NC(=O)c1coc(n1)/C(=C/C)NC(=O)[C@H]([C@@H](C)O)NC(=O)c1csc-2n1)C(N)=O` (some centres not stated), inactive: 78.2 µM; in that of `O=C(Nc1ccccc1)N1CC(CN2CCN(c3ccccc3)CC2)OC1=O` (configuration not stated), inactive: > 10 µM.
Then `N#CC1C(=O)Nc2sc(C(=O)c3ccc(Br)cc3)c(N)c2C12CCCCC2` (configuration not stated), with inactive: 18.9 µM; and `CC(C)(C)OC(=O)NCCC1SC2C=CC1C2` (configuration not stated), with inactive: > 100 µM; and `CC(=O)O[C@H]1CC[C@@]2(C)C(=CC[C@H]3C4=CC=C(C(C)=O)[C@@]4(C)CCC32)C1` (some centres not stated), with inactive: 77.3 µM.
Then `COc1ccc2c(-c3ccc(OCCN(C)C)cc3)c(Oc3ccc(Cl)cc3)c(=O)oc2c1`, with inactive: 4.65 µM; and `CN1C(=O)[C@](C)(Cc2ccc(F)cc2)N(C(=O)OC(C)(C)C)[C@@H]1C(C)(C)C`, with inactive: 72.8 µM; and `COc1c(C(=O)/C(=N/Nc2cccc(Cl)c2)C(C)=O)c(O)c(OC)c2occc12`, with inactive: > 100 µM.
Regarding `C/C(=C/CC[C@](C)(OC1OC(CO)C(O)C(O)C1OC1OC(C)C(O)C(O)C1O)[C@H]1CC[C@]2(C)[C@@H]1CC[C@@H]1[C@@]3(C)CC[C@H](O)C(C)(C)[C@@H]3C[C@H](O)[C@]12C)CO` (some centres not stated), the GI50 is inactive: > 100 µM.
For `CONC(C)=O`, the GI50 is inactive: > 100 µM.
Then `C=CCCCCC1CCC2CCC(CCCCC=C)N12` (configuration not stated), with inactive: 17.3 µM; and `CNC(=O)c1ccccc1-[s+]1c2ccccc2c(=O)n1C` (configuration not stated), with inactive: > 100 µM.
Then `CC(=O)N1CC(C)(C)c2c(C)c(O)c(C)c(C)c21`, with inactive: > 100 µM.
Then `COc1nc(NC2OC(COC(C)=O)C(OC(C)=O)C(OC(C)=O)C2OC(C)=O)c(/N=C/C=N/c2c(NC3OC(COC(C)=O)C(OC(C)=O)C(OC(C)=O)C3OC(C)=O)nc(OC)[nH]c2=O)c(=O)[nH]1` (configuration not stated), with inactive: > 100 µM; and `CCOC(=O)/C=C1\c2ccccc2C(=O)N1CC(=O)OCC`, with inactive: > 100 µM; and `ClCCC[Si]12OCCN(CCO1)CCO2`, with inactive: > 100 µM.
On to `CCOC(=O)CNC(=O)OCc1ccccc1`, for which the GI50 is inactive: > 100 µM.
Then `Cc1ccc(NC(=O)CCc2nnc3s/c(=C\C=C\c4ccccc4)c(=O)n23)cc1`, with inactive: > 71.6 µM.
Then `Cc1ccc(C(=O)NC2C(=O)NC(C(C)C)C(=O)N3CCCC3C(=O)N(C)CC(=O)N(C)C(C(C)C)C(=O)OC2C)c2c1Oc1c(c(C(=O)NC3C(=O)NC(C(C)C)C(=O)N4CCCC4C(=O)N(C)CC(=O)N(C)C(C(C)C)C(=O)OC3C)c3nc(-c4ccccc4)c(=O)oc3c1C)N2` (configuration not stated), with active: 0.00128 µM.
In the case of `COc1ccc(C(=O)O)c(Cc2cccc3ccccc23)c1` it was inactive: > 100 µM; in that of `Cc1cc2c(s1)C(=O)c1sccc1C2=O`, inactive: 1.76 µM; in that of `CC(=O)NC(Cc1ccc(OP(=O)(OCc2ccc([N+](=O)[O-])o2)N(C)CCCCCl)cc1)C(=O)NC(C)c1ccc(OCC2CCCCC2)c(C(N)=O)c1` (configuration not stated), inactive: 4.29 µM.
As to `Brc1ccc(-c2[nH]c3ccccc3c2/C=N\Nc2ccc(-c3nc4ccccc4[nH]3)cc2)cc1`, the GI50 was active: < 0.01 µM.
Then `CCOc1ccc(/C=C(\Cl)c2ccc(OC)c(OC)c2)cc1`, with inactive: 39.4 µM; and `CC1=C(C(=O)NCc2ccccc2)C(/C=C/c2ccccc2)C(C(=O)NCc2ccccc2)=C(C)N1`, with inactive: > 100 µM.
In the case of `N/C=N/S(=O)(=O)c1ccc(NC(=O)COC(=O)c2cccc3c(=O)c4ccccc4[nH]c23)cc1` it was inactive: > 100 µM.
Then `COc1cc(/C=N\O[Si](C)(C)C(C)(C)C)ccc1O[Si](C)(C)C(C)(C)C`, with inactive: > 100 µM; and `CC(NC(=O)C(Cc1ccc(OC(=O)c2ccccc2)cc1)NC(=O)OC(C)(C)C)C(=O)NCC(=O)NC(Cc1ccccc1)C(=O)NN` (configuration not stated), with inactive: > 100 µM.
With `CCCCCCCCOC(CO)CO`, the GI50 is inactive: > 100 µM.
With `CC(C)=CC(=O)OC1C2C(C)=CC(O)C(O)C2(C)C2C3(O)OCC24C(CC(=O)OC14)C(C)C3O` (configuration not stated), the GI50 is active: 1.08 µM.
In the case of `COc1ccc(/C(Cl)=C(/c2ccc(O)cc2)c2ccc(OCCN(C)C)cc2)cc1` it was inactive: 11.4 µM; in that of `Cc1ccc([N+](=O)[O-])cc1S(=O)(=O)Nc1ccc(C2=NN(c3ccc([N+](=O)[O-])cc3[N+](=O)[O-])C(c3ccccc3)C2)cc1` (configuration not stated), inactive: 17 µM.
Then `COc1ccc2c(c1)CC[C@@H]1[C@@H]2CC[C@]2(C)[C@@H](O)/C(=C/c3ccncc3)C[C@@H]12`, with inactive: 15.9 µM.
Then `CCCC/N=C(/c1ccccc1)N1CCOCC1`, with inactive: > 100 µM; and `O=C(O)CCC(/N=C(\C(=N\C(CCC(=O)O)C(=O)O)c1ccccc1)c1ccccc1)C(=O)O` (configuration not stated), with inactive: > 100 µM.
For `CCOC(=O)/C(C(C)=O)=C(\OC(C)=O)c1ccncc1C(=O)O`, the GI50 is inactive: > 100 µM.
Then `CC1SC(c2ccccc2)N(Nc2c3ccccc3nc3ccccc23)C1=O` (configuration not stated), with inactive: 97.1 µM.
Take `N#Cc1ccc(Oc2ccccc2)cc1C#N`: the GI50 is inactive: > 100 µM.
In the case of `COC(=O)C(=O)C(CC(=O)Nc1ccc(C)cc1)C(=O)OC` (configuration not stated) it was inactive: > 100 µM.
In the case of `CN1CCOC1(C)CO` (configuration not stated) it was inactive: > 100 µM; in that of `C/C(CC(=O)Nc1ccc([N+](=O)[O-])cc1)=N\Nc1ccc([N+](=O)[O-])cc1[N+](=O)[O-]`, inactive: > 100 µM.
Take `O=S(=O)(O)c1cc(O)c2c(O)c(/N=N/c3ccc(/C=C/c4ccc(/N=N/c5c(S(=O)(=O)O)cc6cc(S(=O)(=O)O)cc(O)c6c5O)cc4S(=O)(=O)O)c(S(=O)(=O)O)c3)c(S(=O)(=O)O)cc2c1`: the GI50 was inactive: > 100 µM.
As to `Cc1cc(S(=O)(=O)O)ccc1/N=N/c1c(O)ccc2ccccc12`, the GI50 is inactive: > 100 µM.
In the case of `CC1CC2CCCC(=O)C2=C(O)O1` (configuration not stated) it was inactive: > 100 µM; in that of `O=[N+]([O-])c1cc(-c2nnc(C34CC5CC(CC(C5)C3)C4)o2)cc([N+](=O)[O-])c1`, inactive: 35 µM; in that of `Cc1[nH]n(-c2ncc(C#N)c(=O)[nH]2)c(=O)c1CCO`, inactive: > 100 µM.
In the case of `NS(=O)(=O)c1ccc(/N=N/c2ccc(O)cc2)cc1` it was inactive: > 100 µM.
Turning to `CC(=O)O[C@H]1[C@@H]2[C@@H]3[C@@H](C[C@H]1C)[C@@H](C)CO[C@@]1(C)CC/C=C(/C)C[C@@H]2O[C@@H]31`, the GI50 is inactive: > 100 µM.

(Values after ChEMBL document CHEMBL1201862, “PubChem BioAssay data set” (2004).)
